Some of the results follow. Single values are uncertain, as repeats are few or missing.
What follows are compounds tested on A2058 (assay: cell count relative to DMSO control; melanoma cells; higher = more viable cells). Conditions: library dose: low library concentration; 72 h.
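Note: cell number obtained by counting DAPI-stained nuclei in high-throughput microscope images with image analysis software, screen run in 1,536-well plates.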

Compound | cell count
Cc1cn(-c2cc(NC(=O)c3ccc(C)c(Nc4nccc(-c5cccnc5)n4)c3)cc(C(F)(F)F)c2)cn1 [nilotinib] + C[C@]1(O)C[C@@H](c2nc(-c3ccc4ccc(-c5ccccc5)nc4c3)c3c(N)nccn32)C1 [OSI906] (first compound 0.2 µM, partner dose 0.4 µM) | 82.7%
CC(C)C[C@H](NC(=O)[C@H](Cc1ccccc1)NC(=O)c1cnccn1)B(O)O [Bortezomib] + Nc1nc(F)nc2c1ncn2[C@@H]1O[C@H](CO)[C@@H](O)[C@@H]1O [fludarabine] (first compound 0.001 µM, partner dose 0.2 µM) | 80.8%
COc1ccc(C2=N[C@@H](c3ccc(Cl)cc3)[C@@H](c3ccc(Cl)cc3)N2C(=O)N2CCNC(=O)C2)c(OC(C)C)c1 [Nutlin-3] + CNC(=O)c1cc(Oc2ccc(NC(=O)Nc3ccc(Cl)c(C(F)(F)F)c3)cc2)ccn1 [sorafenib] (first compound 0.1 µM, partner dose 0.4 µM) | 110%
COc1ccc(C2=N[C@@H](c3ccc(Cl)cc3)[C@@H](c3ccc(Cl)cc3)N2C(=O)N2CCNC(=O)C2)c(OC(C)C)c1 [Nutlin-3] + COCC[n+]1c2c(n(Cc3cnccn3)c1C)C(=O)c1ccccc1C2=O [YM155] (first compound 0.1 µM, partner dose 0.0004 µM) | 91.2%
COc1ccc(C2=N[C@@H](c3ccc(Cl)cc3)[C@@H](c3ccc(Cl)cc3)N2C(=O)N2CCNC(=O)C2)c(OC(C)C)c1 [Nutlin-3] + Nc1nc(F)nc2c1ncn2[C@@H]1O[C@H](CO)[C@@H](O)[C@@H]1O [fludarabine] (first compound 0.1 µM, partner dose 0.2 µM) | 74.4%

Source: the supplement of paper PMC4604168 (melanoma cell lines)
